# Laboratory results published in patent US20140235520A1, “Perfume Compositions” (Givaudan Nederland Services B.V., priority 2005, published 2014).
# Tested on: Escherichia coli ATCC 10536
# Assay: Standardised biofilm detachment assay (96 well microtitre plate, crystal violet OD540) in quarter strength GPC base Formula A
# Design: key: D indicates that the material is not yet identified, but is tentatively allocated to group A or B
# Conditions: ingredient of Example 4 composition, not yet identified
# Source text: In particular, a standardised biofilm detachment assay was used to quantify perfume ingredients in biofilm removal in terms of percent detachment values (PDVs). The standardised biofilm detachment assay is based on testing perfume compositions of 4 perfume ingredients present in equal amounts by weight, comprising 3 ingredients that fall in Group B and are non-active with regard to biofilm detachment (3,7-dimethyloct-6-en-1-ol; 1-ethenyl-1,5-dimethylhex-4-enyl acetate; and phenylmethyl-2-hydroxybenzoate) in admixture of a perfume ingredient under test. Each 4 component perfume mixture was used at a concentration of 0.25% w/w in a quarter strength general purpose cleaner (GPC) base test mixture having the composition of Formula A as set out in Example 1(a) below. […] PDVs for the perfume ingredients obtained in this way were rounded to the nearest integer. References in this specification to percent detachment value or PDV of a material means a value obtained using this standardised biofilm detachment assay, as defined above. […]
# The crystal violet was quantified by measuring the optical density at 540 nm (OD540) of each well using a plate reader (model MRX, Dynatech laboratories, Chantilly, Va., USA). A percentage detachment value (PDV) for each test mixture was then calculated using the following formula: […]
smiles,measurement,value
CCCCCCC1=CCCC1=O [2-hexylcyclopent-2-en-1-one],Group (tentative),D
